Results as given in PubChem BioAssay AID761 (NMMLSC, 2007).
Screen size: about 190,000 compounds; about 400 (0.21%) were called active. The inconclusive results got no clear call from the source; some entries with a clear call stand among them for comparison.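 How the source made its calls: active means percent activity GTP binding at least 20 points away from the 100% baseline, either down as inhibitor or up as activator; inconclusive means compound flagged as likely green fluorescent from well-wide comparison; inactive means the rest.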

molecular target: Cell division control protein 42 homolog (Homo sapiens) (UniProt P60953); experiment: wildtype Cdc42 fluorescent GTP binding changes, either direction – biochemical, multiplex bead flow cytometry, Bodipy-GTP, primary screen (AID 761); conditions: GST-Cdc42 beads, at 10 µM, actives lie on both sides;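 further: median bead fluorescence of bound Bodipy-FL-GTP at 100 nM; 0% = excess unlabeled GTP control and 100% = no compound control; below 100% means less GTP binding so inhibitor and above means activator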
Chain of UniProt P60953 (P60953 whole entry, looked up): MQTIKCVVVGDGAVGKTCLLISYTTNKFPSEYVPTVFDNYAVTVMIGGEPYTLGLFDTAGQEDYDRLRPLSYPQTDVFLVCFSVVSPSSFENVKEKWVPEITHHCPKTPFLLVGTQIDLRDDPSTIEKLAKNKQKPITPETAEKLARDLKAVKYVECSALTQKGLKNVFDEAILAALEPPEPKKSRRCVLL

Row | Compound | percent activity (GTP binding)
1 | CS(=O)(=O)c1ccc(C(=O)OCC(=O)NC(=O)C2CCCCC2)cc1[N+](=O)[O-] | active: 68%
2 | COc1ccc(C(=O)Nc2cc(Cl)ccc2Cl)c(OC)n1 | inconclusive: 105%
3 | CCCSc1nc(O)c(C(c2ccc(OC)c(O)c2)c2c(O)nc(SCCC)n(C)c2=O)c(=O)n1C | inconclusive: 87%
4 | Cc1cccc(C(=O)NCC(=O)N2CC(=O)Nc3ccccc32)c1 | inactive: 101%
5 | O=C1CN(C(=O)/C=C/c2cccc(Cl)c2)c2ccccc2N1 | inconclusive: 82%
6 | CC(C)(C)NC(=O)c1ccc2nsnc2c1 | inconclusive: 335%
7 | O=C(NCc1ccccc1)C1CCN(S(=O)(=O)c2ccc(Cl)cc2)CC1 | inactive: 95%
8 | CCCCN(C(=O)NC(=O)Nc1nc2ccc(OC)cc2s1)S(C)(=O)=O | inconclusive: 86%
9 | COc1cccc(C(=O)Nc2cc3c(cc2C(C)=O)OCCO3)c1 | inactive: 99%
10 | CCOc1ccccc1NC(=O)C(NCC1(N2CCCCC2)CCCCC1)c1ccccc1 (stereo not given) | inactive: 96%
11 | O=C1CN(C(=O)COc2ccc(Br)cc2Br)c2ccccc2N1 | inactive: 88%
12 | CN1CCc2c1nc1ccccc1c2N=C1CCCN1Cc1ccccc1 | inactive: 103%
13 | CC1CC(C)(C)NC(=S)N1CC(=O)NCc1ccc(Cl)cc1 (stereo not given) | inconclusive: 103%
14 | O=C(Nc1cccc(-c2nc3ncccc3o2)c1)c1sc2ccccc2c1Cl | inconclusive: 82%
15 | CCN(CC)C(=S)Nc1ccc2nc3n(c(=O)c2c1)CCCCC3 | inactive: 106%
16 | Brc1ccc(CSc2nnc(-c3ccccn3)n2Cc2ccco2)cc1 | inconclusive: 101%
17 | COc1ccc(CNc2nc3ccccc3n2Cc2ccc(C)cc2)cc1OC | active: 131% [activator]
18 | CCN(CC)C(=O)COc1ccc(S(=O)(=O)N2CCOCC2)cc1 | inconclusive: 109%
19 | COc1ccc(NC(=O)Cn2c(=O)n(-c3ccc(OC)cc3OC)c(=O)c3c(C)c(C)sc32)cc1 | inactive: 100%
20 | CCOc1ccc(C(=O)N2CCN(c3cccc(C)c3C)CC2)cc1 | inconclusive: 85%
21 | O=c1cnnc(N/N=C/c2c[nH]c3ccccc23)[nH]1 | inconclusive: 92%
22 | CCN(CC)CCN(C(=O)c1c(F)cccc1F)c1nc2cc(C)cc(C)c2s1 | inactive: 98%
23 | Cc1cc(C)nc(NC(=O)CSc2nccc(C)n2)n1 | inconclusive: 97%

Row | Compound | percent activity (GTP binding)
24 | O=C(CSc1nnnn1-c1cccc2c1CCCC2)N1CCCCC1 | inactive: 91%
25 | CC(C)(C)c1ccc(C(=O)NC(=S)Nn2cnnc2)cc1 | inconclusive: 97%
26 | O=C(O)CCN1C(=O)/C(=C/c2ccc(-c3nc4ccccc4s3)o2)SC1=S | inconclusive: 63%
27 | COc1ccc(/C=C/C(=O)NC(=S)Nc2ccc(S(=O)(=O)Nc3nccnc3OC)cc2)cc1 | inconclusive: 93%
28 | CCc1ccc(N2C(=O)C3ON(c4ccccc4)C(c4ccco4)C3C2=O)cc1 (stereo not given) | inconclusive: 107%
29 | COc1cccc(N2CCN(C(=O)CCCCCNc3nc(=S)[nH]c4ccccc34)CC2)c1 | active: 79%
30 | Cc1ccc(-c2nc3ccccc3[nH]2)cc1NC(=O)c1ccc2c(c1)OCO2 | inconclusive: 104%
31 | Cc1cc(NC(=O)c2cc3n(n2)C(C(F)(F)F)CC(c2ccco2)N3)no1 (stereo not given) | inconclusive: 101%
32 | CC1CCc2cc(F)ccc2N1C(=O)CSc1nnc2c(n1)[nH]c1ccc(F)cc12 (stereo not given) | inconclusive: 93%
33 | COc1ccc(C(=O)NC(C)(C)C)cc1S(=O)(=O)N1CCCC1 | inconclusive: 105%
34 | CCCOc1ccc(C(CC(=O)O)NC(=O)c2sc3ccccc3c2Cl)cc1 (stereo not given) | active: 72%
35 | O=C(c1cccc([N+](=O)[O-])c1)N1CCN(c2ccccn2)CC1 | inconclusive: 110%
36 | CC(O/N=C/c1ccc(OC(F)F)cc1)C(=O)Nc1cccc(S(=O)(=O)N2CCOCC2)c1 (stereo not given) | inactive: 100%
37 | Cc1onc(COc2ccccc2O)c1Br | inconclusive: 107%
38 | Cc1nn(Cc2ccc(Cl)cc2Cl)c(C)c1NC(=O)NC12CC3CC(CC(C3)C1)C2 | inactive: 94%
39 | Cc1ccc(/C([O-])=C(/C(=S)Nc2ccc(SC(F)F)cc2)[n+]2ccccc2)cc1[N+](=O)[O-] | inconclusive: 83%
40 | COc1cccc(-c2nn(C)c3sc(C(=O)NCc4ccco4)cc23)c1 | inconclusive: 90%
41 | Cc1cccc(NC(=S)N(CCN(C)C)Cc2cccs2)c1 | inactive: 104%
42 | Cc1ccccc1-n1c(SCc2c(C)noc2C)nnc1-c1ccncc1 | inactive: 97%
43 | CC(=O)N(Cc1cc(=O)[nH]c2ccccc12)c1ccc(C)cc1 | inconclusive: 103%
44 | COc1ccc(C(=O)c2c(O)cc(-c3ccc(OC)cc3)oc2=O)cc1 | inactive: 117%
45 | CCCCNC(=O)CSc1nc2ccsc2c(=O)n1CCCC(=O)NCCc1ccc(S(N)(=O)=O)cc1 | inactive: 93%
46 | O=C(O)CSc1nnc(COc2cccc3ccccc23)n1Cc1ccccc1 | inconclusive: 86%

Row | Compound | percent activity (GTP binding)
47 | O=C(CSc1nnc(-c2ccco2)n1Cc1ccco1)NCc1cccs1 | inconclusive: 103%
48 | C=CCN(C(=O)c1cccc(N2C(=O)C3CC=CC(C)C3C2=O)c1)c1ccccc1 (stereo not given) | inactive: 98%
49 | CCCCCCCC(=O)NNC(=O)Cc1ccccc1 | inactive: 97%
50 | Cc1cc(C)nc(Nc2nc(C)c3cc4c(cc3n2)OCO4)n1 | inconclusive: 111%
51 | CCc1ccc(-c2c(C)sc(NC(C)=O)c2C(N)=O)cc1 | inconclusive: 107%
52 | CC(=O)Nc1ccc(S(=O)(=O)N2CCN(C(C)CCc3ccccc3)CC2)cc1 (stereo not given) | inconclusive: 105%
53 | CC(C)=CCCC(C)CN1CCC(N2CCC(C(=O)NC(C)C)CC2)CC1 (stereo not given) | inactive: 98%
54 | O=C(NC(=S)N1CCN(c2ccc(F)cc2)CC1)C12CC3CC(CC(C3)C1)C2 | inconclusive: 105%
55 | CCOC(=O)c1c(C)n(CC(COC(C)=O)OC(C)=O)c2ccc(OC(C)=O)cc12 (stereo not given) | inconclusive: 103%
56 | CCNC(=O)NC(=O)C(C)OC(=O)Cc1coc2cc3c(cc12)CCC3 (stereo not given) | inconclusive: 91%
57 | CC1(C)N=C(N)NC(Nc2ccccc2Cl)=N1 | inactive: 96%
58 | CCC(C)N(C(=O)CSc1nc(-c2ccccc2)cs1)C1CCS(=O)(=O)C1 (stereo not given) | inactive: 99%
59 | C/C=C/C(=O)OCC(=O)Nc1cccc(F)c1 | inactive: 96%
60 | Oc1ccc(/C=N/Nc2nc(N3CCCCCC3)nc(N3CCCCCC3)n2)c(O)c1 | inconclusive: 90%
61 | COc1cccc(N=c2oc3c(C)ncc(CO)c3cc2C(N)=O)c1 | inconclusive: 90%
62 | O=C(Cn1c(-c2cscn2)nc2ccccc21)Nc1cc(F)ccc1F | inactive: 115%
63 | CCOc1ccc(NC(=O)CNC(=O)c2ccc([N+](=O)[O-])cc2)cc1 | inactive: 95%
64 | c1ccc(-c2csc(N3CCOCC3)n2)cc1 | inconclusive: 103%
65 | Cc1cc2ccccn2c1C(=O)c1cc([N+](=O)[O-])cc([N+](=O)[O-])c1 | active: 42%
66 | O=C(C1=C[C@H](c2coc3ccccc3c2=O)C[C@H](OCCCCO)O1)N1CCOCC1 | inactive: 98%
67 | C#CCOCCOCCOCCNc1nc(N2CCN(C(=O)[C@H](CCCCN)n3cc(C(N)CO)nn3)CC2)nc(N2CCN(C(=O)[C@H](CCC(=O)O)n3cc(C(N)[C@H](C)CC)nn3)CC2)n1 (stereo not given in full) | inactive: 101%
68 | COc1cc(/C=C(/C#N)c2ccc(F)cc2)ccc1Oc1ccc([N+](=O)[O-])cn1 | inconclusive: 102%
69 | O=C(COc1cccc2ccccc12)N/N=C/c1ccncc1 | inactive: 95%

Row | Compound | percent activity (GTP binding)
70 | COc1cc(/C=N/NC(=O)CN(Cc2ccccc2)S(=O)(=O)c2ccc3c(c2)OCCO3)ccc1O | inactive: 89%
71 | NS(=O)(=O)c1ccc(CCNC(=O)c2ccc(Cl)cc2[N+](=O)[O-])cc1 | inactive: 92%
72 | COc1ccc(OC)c(NC2=NC3(CCCCC3)N=C(N)N2)c1 | inconclusive: 90%
73 | Cc1cccc(NC(=O)CN(C)S(=O)(=O)c2cccs2)c1 | inconclusive: 89%
74 | O=C(CCC(=O)N1CCCC1)Nc1nnc(C(F)(F)F)s1 | inconclusive: 105%
75 | O=C(NNc1cccc(Cl)n1)c1c(Cl)cccc1Cl | inconclusive: 110%
76 | Cc1ccc(C)c(N(CC(N)=O)S(C)(=O)=O)c1 | active: 75%
77 | COc1nc(Nc2ccc(O)cc2)nc(OC(C(F)(F)F)C(F)(F)F)n1 | inconclusive: 147%
78 | CCn1cc(CNC(=S)Nc2cccc(Cl)c2C)cn1 | inactive: 100%
79 | Cc1cc(Cl)nc(-c2ccccc2)n1 | inconclusive: 91%
80 | Cc1c(C(=O)N2CCCCC2)sc(NC(=O)C(C)C)c1C#N | inconclusive: 104%
81 | COc1cccc(CSc2nc3sc(C)c(C)c3c(=O)n2Cc2ccco2)c1 | inconclusive: 100%
82 | CCOc1cc(S(=O)(=O)NCc2ccc3c(c2)OCO3)c(C)cc1C | inconclusive: 93%
83 | O=C(O)c1cccc(-n2c(-c3cnccn3)n[nH]c2=S)c1 | inactive: 94%
84 | Cc1cccc2sc(NC(=O)C3CCCN(S(=O)(=O)c4cccc5nonc45)C3)nc12 (stereo not given) | inconclusive: 110%
85 | O=C1Cn2c(nc3ccccc32)-c2ccccc2N1 | inconclusive: 101%
86 | Nc1[nH]n2c(=O)c3c(nc2c1N=Nc1ccccc1)CCCC3 | active: 72%
87 | Cc1noc2ncnc(N3CCN(c4cccc(Cl)c4)CC3)c12 | inactive: 90%
88 | Cc1ccc(C2(C)NC(=O)N(CCOc3ccccc3)C2=O)cc1 (stereo not given) | inconclusive: 108%
89 | CC1(C)CC(O)C(C(O)c2cccc([N+](=O)[O-])c2)C(C)(C)N1 (stereo not given) | inconclusive: 104%
90 | COc1ccc(S(=O)(=O)NNC(=O)c2cccs2)cc1 | inconclusive: 90%
